Assay results taken from the supplement of paper PMC10724272.

What was measured:
Assay in all cases: CLSI broth microdilution.
[1] = compound: CCC(C)n1ncn(-c2ccc(N3CCN(c4ccc(OCC5COC(Cn6cncn6)(c6ccc(Cl)cc6Cl)O5)cc4)CC3)cc2)c1=O [itraconazole]
[2] = compound: CCCCCOc1ccc(-c2cc(-c3ccc(C(=O)N[C@H]4C[C@@H](O)[C@@H](O)NC(=O)[C@@H]5[C@@H](O)[C@@H](C)CN5C(=O)[C@H]([C@H](O)CC(N)=O)NC(=O)[C@H]([C@H](O)[C@@H](O)c5ccc(O)c(OS(=O)(=O)O)c5)NC(=O)[C@@H]5C[C@@H](O)CN5C(=O)[C@H]([C@@H](C)O)NC4=O)cc3)no2)cc1 [micafungin]
[3] = compound: CCCCCOc1ccc(-c2ccc(-c3ccc(C(=O)N[C@H]4C[C@@H](O)[C@@H](O)NC(=O)[C@@H]5[C@@H](O)[C@@H](C)CN5C(=O)[C@H]([C@@H](C)O)NC(=O)[C@H]([C@H](O)[C@@H](O)c5ccc(O)cc5)NC(=O)[C@@H]5C[C@@H](O)CN5C(=O)[C@H]([C@@H](C)O)NC4=O)cc3)cc2)cc1 [anidulafungin]
[4] = compound: CC[C@@H]([C@H](C)O)n1ncn(-c2ccc(N3CCN(c4ccc(OC[C@@H]5CO[C@@](Cn6cncn6)(c6ccc(F)cc6F)C5)cc4)CC3)cc2)c1=O [posaconazole]
[5] = compound: CC[C@H](C)C[C@H](C)CCCCCCCCC(=O)N[C@H]1C[C@@H](O)[C@@H](NCCN)NC(=O)[C@@H]2[C@@H](O)CCN2C(=O)[C@H]([C@H](O)CCN)NC(=O)[C@H]([C@H](O)[C@@H](O)c2ccc(O)cc2)NC(=O)[C@@H]2C[C@@H](O)CN2C(=O)[C@H]([C@@H](C)O)NC1=O [caspofungin]
[6] = compound: C[C@@H](c1ncncc1F)[C@](O)(Cn1cncn1)c1ccc(F)cc1F [voriconazole]
[7] = compound: C[C@@H]1[C@H](O)[C@@H](C)/C=C/C=C/C=C/C=C/C=C/C=C/C=C/[C@H](O[C@@H]2O[C@H](C)[C@@H](O)[C@H](N)[C@@H]2O)C[C@@H]2O[C@](O)(C[C@@H](O)C[C@@H](O)[C@H](O)CC[C@@H](O)C[C@@H](O)CC(=O)O[C@H]1C)C[C@H](O)[C@H]2C(=O)O [amphotericin B]
[8] = compound: Nc1[nH]c(=O)ncc1F [flucytosine]
[9] = compound: OC(Cn1cncn1)(Cn1cncn1)c1ccc(F)cc1F [fluconazole]

| Test System | MIC [1] | MIC [2] | MIC [3] | MIC [4] | MIC [5] | MIC [6] | MIC [7] | MIC [8] | MIC [9] |
| --- | --- | --- | --- | --- | --- | --- | --- | --- | --- |
| Candida tropicalis isolate 141 (ERG11 copies: 2, Erg11p: no key change) | 0.12 mg/L [S] | 0.015 mg/L [S] | ≤ 0.015 mg/L [S] | 0.12 mg/L [S] | 0.06 mg/L [S] | 0.12 mg/L [S] | 1 mg/L [S] | ≤ 0.06 mg/L [S] | 2 mg/L [S] |
| Candida tropicalis isolate 142 (ERG11 copies: 2, Erg11p: no key change) | 0.06 mg/L [S] | 1 mg/L [R] | 0.5 µg/mL | 0.06 mg/L [S] | 0.5 µg/mL | 0.015 mg/L [S] | 0.25 mg/L [S] | ≤ 0.06 mg/L [S] | 1 mg/L [S] |
| Candida tropicalis isolate 143 (ERG11 copies: 2, Erg11p: no key change) | 0.12 mg/L [S] | 0.03 mg/L [S] | 0.03 mg/L [S] | 0.12 mg/L [S] | 0.06 mg/L [S] | 0.06 mg/L [S] | 1 mg/L [S] | ≤ 0.06 mg/L [S] | 1 mg/L [S] |
| Candida tropicalis isolate 144 (ERG11 copies: 2, Erg11p: no key change) | 0.25 mg/L [S] | 0.03 mg/L [S] | 0.12 mg/L [S] | 0.25 mg/L [S] | 0.03 mg/L [S] | 0.25 µg/mL | 0.5 mg/L [S] | ≤ 0.06 mg/L [S] | 2 mg/L [S] |
| Candida tropicalis isolate 145 (ERG11 copies: 7, Erg11p: Y132F, S154F (heterozygous)) | 1 mg/L [R] | 0.03 mg/L [S] | 0.06 mg/L [S] | 2 mg/L [R] | 0.03 mg/L [S] | ≥ 8 mg/L [R] | 2 mg/L [S] | ≤ 0.06 mg/L [S] | 512 mg/L [R] |
| Candida tropicalis isolate 146 (ERG11 copies: 2, Erg11p: no key change) | 0.12 mg/L [S] | 0.03 mg/L [S] | 0.03 mg/L [S] | 0.12 mg/L [S] | 0.06 mg/L [S] | 0.06 mg/L [S] | 1 mg/L [S] | ≤ 0.06 mg/L [S] | 1 mg/L [S] |
| Candida tropicalis isolate 147 (ERG11 copies: 2, Erg11p: no key change) | 0.25 mg/L [S] | 0.03 mg/L [S] | 0.06 mg/L [S] | 0.25 mg/L [S] | 0.03 mg/L [S] | 0.12 mg/L [S] | 1 mg/L [S] | 0.12 mg/L [S] | 2 mg/L [S] |
| Candida tropicalis isolate 148 (ERG11 copies: 2, Erg11p: no key change) | 0.5 mg/L [S] | 0.06 mg/L [S] | 0.12 mg/L [S] | 0.5 mg/L [R] | 0.12 mg/L [S] | 0.5 µg/mL | 1 mg/L [S] | ≤ 0.06 mg/L [S] | 4 µg/mL |
| Candida tropicalis isolate 149 (ERG11 copies: 8, Erg11p: Y132F, S154F (heterozygous)) | 1 mg/L [R] | 0.03 mg/L [S] | 0.12 mg/L [S] | 1 mg/L [R] | 0.03 mg/L [S] | ≥ 8 mg/L [R] | 0.5 mg/L [S] | ≤ 0.06 mg/L [S] | 512 mg/L [R] |
| Candida tropicalis isolate 150 (ERG11 copies: 16, Erg11p: Y132F, S154F (heterozygous)) | 1 mg/L [R] | 0.06 mg/L [S] | 0.25 mg/L [S] | 1 mg/L [R] | 0.06 mg/L [S] | ≥ 8 mg/L [R] | 1 mg/L [S] | ≤ 0.06 mg/L [S] | 512 mg/L [R] |
| Candida tropicalis isolate 151 (ERG11 copies: 2, Erg11p: no key change) | 0.12 mg/L [S] | 0.06 mg/L [S] | 0.12 mg/L [S] | 0.06 mg/L [S] | 0.03 mg/L [S] | 0.06 mg/L [S] | 1 mg/L [S] | ≤ 0.06 mg/L [S] | 1 mg/L [S] |
| Candida tropicalis isolate 152 (ERG11 copies: 2, Erg11p: no key change) | 0.015 mg/L [S] | 0.015 mg/L [S] | ≤ 0.015 mg/L [S] | 0.015 mg/L [S] | 0.03 mg/L [S] | ≤ 0.008 mg/L [S] | 0.5 mg/L [S] | ≤ 0.06 mg/L [S] | 0.25 mg/L [S] |
| Candida tropicalis isolate 153 (ERG11 copies: 2, Erg11p: no key change) | 0.25 mg/L [S] | 0.03 mg/L [S] | 0.12 mg/L [S] | 0.25 mg/L [S] | 0.06 mg/L [S] | 0.12 mg/L [S] | 1 mg/L [S] | 0.12 mg/L [S] | 1 mg/L [S] |
| Candida tropicalis isolate 154 (ERG11 copies: 2, Erg11p: no key change) | 0.06 mg/L [S] | 0.03 mg/L [S] | 0.06 mg/L [S] | 0.06 mg/L [S] | 0.06 mg/L [S] | 0.06 mg/L [S] | 1 mg/L [S] | ≤ 0.06 mg/L [S] | 1 mg/L [S] |
| Candida tropicalis isolate 155 (ERG11 copies: 2, Erg11p: no key change) | 0.12 mg/L [S] | 0.03 mg/L [S] | 0.03 mg/L [S] | 0.25 mg/L [S] | 0.03 mg/L [S] | 0.12 mg/L [S] | 0.5 mg/L [S] | ≤ 0.06 mg/L [S] | 1 mg/L [S] |
| Candida tropicalis isolate 156 (ERG11 copies: 2, Erg11p: no key change) | 0.5 mg/L [S] | 0.03 mg/L [S] | 0.03 mg/L [S] | 0.25 mg/L [S] | 0.03 mg/L [S] | 0.5 µg/mL | 1 mg/L [S] | ≤ 0.06 mg/L [S] | 2 mg/L [S] |
| Candida tropicalis isolate 157 (ERG11 copies: 8, Erg11p: Y132F, S154F (heterozygous)) | 1 mg/L [R] | 0.03 mg/L [S] | 0.06 mg/L [S] | 1 mg/L [R] | 0.03 mg/L [S] | > 8 mg/L [R] | 1 mg/L [S] | ≤ 0.06 mg/L [S] | 512 mg/L [R] |

MIC of invasive clinical C. tropicalis isolates, CLSI broth microdilution (fluconazole 0.12-256 mg/L, up to 1,024 for the azole-resistant cluster and its neighbour group; other ranges not stated); higher = less susceptible. Call: susceptible or wild type [S] / resistant or non-wild type [R] by CLSI breakpoints or cut-offs; intermediate and dose-dependent carry no call. '<=' and '>=' at the end values are inferred; the source marks only some of them. Isolates are numbered anew.
